# In PubChem BioAssay AID1963576 (National Center for Advancing Translational Sciences (NCATS), 2024):
# Hit rate of the full screen: of about 46,000 compounds, about 60 (0.1%) were called active. Not shown: some 3% with an inconclusive outcome. The call rests on the fitted dose curve; in most records, active means well fitted inhibition curve with a large enough effect; inconclusive means small, poorly fitted or top-dose-only effect; inactive means no such curve, though single readings can be large or run the other way. The list shows a part of the results.
# Assay: Primary qHTS assay for Inhibitors of ovarian cancer metastasis using an organotypic tumor microenvironment (TME) model. Further: nearly all actives have a fitted effect of over 65% in size.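 On activity change, negative = inhibition: plate controls were DMSO wells for no effect and tomatine positive control wells for full effect.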
# Conditions: SKOV3ip1-GFP adhesion/invasion on 3D omental model, fluorescence; series mostly up to 45.8 µM; activity change, negative = inhibition: at the top concentration
# In short: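 A 3D layer of primary human omental fibroblasts, mesothelial cells, fibronectin and collagen I, grown 48 hr, received SKOV3ip1-GFP cells in serum-free medium plus compounds at 0.36-46 umol/L. After 2 hr RT and 16 hr 37 C, fixed adherent GFP cells were counted; normalized to DMSO and tomatine.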
Structure (SMILES),outcome,"activity change, negative = inhibition"
CC(C)CCN(C(=O)Nc1ccccc1)C(C)c1cccs1 (stereo unspecified),inactive,–
CC(C)OC(=O)c1c(-c2ccccc2)c(-c2ccccc2)nn(C)c1=O,–,inactive: 2.4%
COc1cccc(NC(=O)CSc2nc(=O)n(Cc3ccncc3)c3c2CCC3)c1,–,inactive: -5.46%
CCCN1CCN(c2ncnc3sc(C(=O)Nc4c(C)cc(C)cc4C)c(C)c23)CC1,–,inactive: 81.1%
Cc1cccc(NC(=O)CN2C(=O)c3cccc4cccc2c34)c1C,inactive,–
CCOC(=O)N1CCC2(CC1)OC(=O)C(C)=C2C(=O)NCc1cccc(F)c1,–,inactive: -6.37%
NC(=O)C1(N2CCCCC2)CCN(C(=O)Nc2ccc(F)cc2F)CC1,inactive,–
CCC1CN(S(=O)(=O)c2cc(-c3onc(C)c3C)ccc2C)c2cc(Cl)ccc2O1 (stereo unspecified),–,inactive: 7.12%
CCc1ccc(C(=O)c2cn(CC(=O)Nc3ccc(OC)cc3)c3cc4c(cc3c2=O)OCO4)cc1,–,inactive: 0.308%
Cc1cccc(-n2ncc3c(N4CCCC(C)C4)ncnc32)c1 (stereo unspecified),inactive,–
C#CCOc1ccc(C2CC(=O)Nc3c2c(C)nn3-c2nc(C)cc(C)n2)cc1 (stereo unspecified),–,inactive: 4.39%
Cc1cccc(C(=O)N2c3nc(-c4ccco4)nn3C3(CCCCC3)[C@@H]3CCCC[C@@H]32)c1,inactive,–
NS(=O)(=O)c1ccc(NC(=O)C(=O)Nc2ccc3nc4n(c(=O)c3c2)CCCCC4)cc1,–,inactive: -3.99%
Cc1cc(NC(=O)C2CCN(S(=O)(=O)c3cccc4nsnc34)CC2)ccc1Br,inactive,–
Cc1ccc(Cn2ccnc2SCC(=O)Nc2nc3ccccc3s2)cc1,inactive,–
O=C1c2c(O)cc(O)cc2OC(c2ccc(O)c(O)c2)C1O (stereo unspecified),–,inactive: -12.6%
O=c1ccc(-c2ccccc2)nn1Cc1ccc(F)cc1Cl,inactive,–
CCCCCCSc1nnc2c(n1)OC(C)Nc1ccc(Br)cc1-2 (stereo unspecified),–,inactive: -1.04%
Cc1c(C(=O)Nc2cccc(-c3nc4ccccc4s3)c2)oc2ccccc12,–,inactive: -7.83%
CCOc1ccc2nc(N3CCCC(C(=O)Nc4cc(Cl)c(OC)cc4OC)C3)sc2c1 (stereo unspecified),–,inactive: 8.16%
COc1ccc(CNC(=O)c2ccc(NC(=O)N3CCSc4ccccc43)cc2)cc1,–,inactive: -6.48%
CSc1nn(Cc2cccc(C)c2)c(N)c1S(=O)(=O)c1ccccc1,–,inactive: -0.75%
CCOC(=O)c1ccccc1NC(=O)COc1ccccc1-c1nnc(-c2ccccc2)o1,inactive,–
COc1ccc(Nc2nccc(NCCO)n2)cc1,–,inactive: -9.77%

Structure (SMILES),outcome,"activity change, negative = inhibition"
Cc1ccc2nc(-c3ccc(NC(=O)c4ccc(S(C)(=O)=O)cc4)cc3)sc2c1,–,inactive: -18.2%
Cc1ccc(NC(=O)CC(C)S(=O)(=O)c2ccc3c(c2)NC(=O)CO3)c(Cl)c1 (stereo unspecified),–,inactive: -7.42%
CC(C)c1ccc2oc(-c3ccc(NC(=O)c4cccc(Br)c4)cc3)nc2c1,–,inactive: 4.34%
COc1cc(NC(=O)C(CC(C)C)NS(=O)(=O)c2ccc3c(c2)CCN3C(C)=O)cc(OC)c1 (stereo unspecified),inactive,–
CCc1ccc(CNCc2c(C(=O)O)n(Cc3ccc(C)cc3)c3cc(C)ccc23)cc1,–,inactive: -7.66%
COc1cc2c(=O)n(CCC(=O)NCC3CCCO3)c(=O)n(CC(=O)Nc3ccc(C)cc3C)c2cc1OC (stereo unspecified),–,inactive: -0.252%
Cc1ccccc1Cn1c2ccccc2c2cnn(CC(=O)NC3CCC(C)CC3)c(=O)c21 (stereo unspecified),–,inactive: -2.41%
Cc1ccc(C)c(N2CCN(CCCNC(=O)c3ccc4nc(N5CCC(C)CC5)sc4c3)CC2)c1,–,inactive: 3.28%
COc1cc2c(cc1OC)C(CC(=O)O)N(C(=O)Nc1cc(OC)c(OC)c(OC)c1)CC2 (stereo unspecified),inactive,–
CCc1c(C)c2cc3c(c(C)c2oc1=O)OCN(CCc1ccc(OC)c(OC)c1)C3,–,inactive: -2.67%
CCc1ccc(C2=NN(CCC(=O)NCCc3ccccc3)C(=O)CC2)cc1,–,inactive: -5.94%
COc1ccc(N(CC(=O)NCCc2ccccc2)S(=O)(=O)c2c(C)nn(C)c2C)cc1,–,inactive: -27%
CC(=O)c1ccc(Nc2cc(C)nc3nc(Cc4ccccc4)nn23)cc1,inactive,–
COc1ccc(-n2c(=O)c3c4c(sc3n(Cc3ccccc3C)c2=O)CCCC4)c(OC)c1,inactive,–
CCc1cccc(NC(=O)C(Cc2ccccc2)NS(=O)(=O)c2cccs2)c1 (stereo unspecified),–,inactive: 0.615%
Cc1ccc(N2CCN(C(=O)Cn3ncc4c([nH]c5ccc(C)cc54)c3=O)CC2)c(C)c1,–,inactive: 9.39%
CC(C)CC(=O)Nc1nnc(S(=O)(=O)N2c3ccccc3CC2C)s1 (stereo unspecified),–,inactive: 0.812%
CCc1nc2ccc(C(=O)N3CCN(c4cccc(Cl)c4)CC3)cc2nc1CC,–,inactive: -0.0539%
CC(C)c1ccc(Nc2sc(C(=O)c3ccccc3)c(N)c2S(=O)(=O)c2ccccc2)cc1,–,inactive: -3.11%
CCOc1ccc(C(=O)NCCc2csc(-c3cccc(C)c3)n2)cc1,–,inactive: -4.34%
CCC1(C)CC(=O)c2c(ccc3oc(C(=O)Nc4ccc(C(C)=O)cc4)c(C)c23)O1 (stereo unspecified),–,inactive: 5.69%
CCCn1c2ccccc2c2cnn(CC(=O)Nc3cc(OC)c(OC)c(OC)c3)c(=O)c21,inactive,–
COc1ccc(-c2cc3ccc(O)c(CN4CCN(C)CC4)c3oc2=O)cc1OC,–,inactive: -1.43%
COc1cc(CNC(=O)c2cnc3c(-c4cccc(C)c4)c(C)nn3c2C)cc(OC)c1OC,–,inactive: -1.66%

Structure (SMILES),outcome,"activity change, negative = inhibition"
CCOc1ccc(CCNC(=O)CCCn2c(=O)c3cccn3c3cccnc32)cc1,–,inactive: -1.35%
CCOCCOC(=O)c1ccc2c(c1)N(Cc1ccccc1C#N)C(=O)c1ccccc1S2(=O)=O,inactive,–
CCc1ccc(C(=O)COC(=O)C(NC(=O)C2CCC(C)CC2)C(C)C)cc1 (stereo unspecified),inactive,–
Nc1cc(=O)nc(SCC(=O)Nc2ccccc2)n1CCc1ccccc1,–,inactive: -3.06%
COC1CCC(N(C(=O)C2CCC(C)CC2)c2cc(C3=CCCCC3)sc2C(=O)O)CC1 (stereo unspecified),–,inactive: -18.2%
CCCc1ccc(OCC(=O)Nc2sc3c(c2C(=O)OCC)CCC(C(C)(C)C)C3)cc1 (stereo unspecified),–,inactive: -9.67%
O=C(NC1CC(=O)N(c2ccc(Cl)cc2)C1)c1cc2ccccc2o1 (stereo unspecified),–,inactive: -2.6%
CC(=O)Nc1ccc(Nc2ccc3cc(S(=O)(=O)N4CCCCC4)ccc3n2)cc1,–,inactive: -4.01%
COc1ccc2[nH]cc(CCNC(=O)Nc3cc(C)cc(C)c3)c2c1,–,inactive: 2.32%
CCC(Nc1ccc(-c2nc(-c3cccnc3)no2)cc1[N+](=O)[O-])c1ccccc1 (stereo unspecified),inactive,–
O=c1c2cccnc2n(Cc2cccc(F)c2)c(=O)n1Cc1ccc(F)cc1,–,inactive: 0.205%
Cc1ccc2nc3c(cc(C(=O)NC4CCCC4)c(=N)n3C(C)C)c(=O)n2c1,–,inactive: -3.27%
Cc1cccc(CNS(=O)(=O)c2ccc(-c3coc(C)n3)cc2)c1,inactive,–
COc1ccc2c(c1)c1c(c(=O)n(-c3cccc(C)c3)c(=O)n1CC(=O)NCCC1=CCCCC1)n2C,inactive,–
COc1ccccc1Nc1nc(-c2ccccc2)c(CC(=O)O)s1,–,inactive: -2.47%
CCOC(=O)c1c(-c2ccc(OC)c(OC)c2)csc1NC(=O)c1ccccc1F,inactive,–
COc1ccc(S(=O)(=O)c2nnn(-c3cccc(Cl)c3)c2N)cc1,inactive,–
CCOC(=O)c1cc(-c2ccc(OC)c(S(=O)(=O)N3CCN(c4ccccc4)CC3)c2)on1,inactive,–
O=C1Cc2cc(S(=O)(=O)Nc3ccc(OC(F)(F)F)cc3)cc3c2N1CCC3,–,inactive: -3.02%
Cc1ccccc1OCC(=O)Nc1ccc2nc(SCC(=O)N3CCCC3)sc2c1,inactive,–
Cc1cccc(N2CCN(C(=O)c3cnn(-c4ccccc4)c3C3CCN(C(=O)OC(C)(C)C)CC3)CC2)c1C,inactive,–
CCOC(=O)c1c(NC(=O)C(C)Sc2cn(CCNC(=O)c3ccc(OCC)cc3)c3ccccc23)sc2c1CCC2 (stereo unspecified),–,inactive: -15.8%
O=C(O)C1=CO[C@@H](O[C@@H]2O[C@H](CO)[C@H](O)[C@H](O)[C@H]2O)[C@@H]2C(CO)=CC[C@H]12,–,inactive: -3.49%
CCOC(=O)c1ccc(NC(=O)Cn2nc(C)c3nn(-c4ccc(Cl)cc4)c(C)c3c2=O)cc1,–,inactive: -7.82%

Structure (SMILES),outcome,"activity change, negative = inhibition"
CCc1nc2nc(C)cc(Nc3cc(C)ccc3C)n2n1,–,inactive: -15.1%
COc1ccc(N2CC(NC(=O)C(c3ccccc3)c3ccccc3)CC2=O)cc1 (stereo unspecified),–,inactive: 40.1%
COCCn1ccc2c(OCC(=O)Nc3cccc(C(F)(F)F)c3)cccc2c1=O,–,inactive: 4.24%
CCOC(=O)c1c(S(=O)(=O)N2CCC(C(=O)NCc3ccccc3Cl)CC2)c(C)n(C)c1C,–,inactive: -14.1%
COc1ccccc1CNC(=O)C1CCN(S(=O)(=O)Cc2ccccc2)CC1,–,inactive: -7.77%
Cc1nc2nc[nH]n2c(=O)c1NS(=O)(=O)c1ccc(Br)cc1,–,inactive: 0.748%
CC(c1cc2ccccc2s1)N(O)C(N)=O (stereo unspecified),–,inactive: -14.4%
Cc1ccc(Nc2ncnc3c2nc2n3CCCC2)cc1F,inactive,–
Clc1ccc(CSc2nncn3c2cc2occc23)cc1,–,inactive: -17.5%
CC1=C(c2ccc(Cl)cc2)S(=O)(=O)N=C1N1CCN(c2cc(C)ccc2C)CC1,–,inactive: -5.2%
Cc1cc2[nH]c(=O)c(=O)[nH]c2cc1S(=O)(=O)N1CCN(c2ccccc2F)CC1,–,inactive: -6.38%
COc1ccc2sc(N(Cc3cccnc3)C(=O)CCc3ccccc3)nc2c1,–,inactive: 2.5%
CCCN1CCCc2cc(CN(CCCN3CCOCC3)C(=O)Nc3ccc(Cl)c(Cl)c3)ccc21,inactive,–
COc1cccc(Cn2c(=O)n(Cc3ccccc3)c(=O)c3c2c2cc(OC)ccc2n3C)c1,–,inactive: -4.13%
Cc1cc(C)cc(-n2c(SCC(=O)Nc3ccc4c(c3)OCO4)nc3c([nH]c4ccccc43)c2=O)c1,–,inactive: -1.91%
Cc1cccc(N(C)S(=O)(=O)c2ccc3c(c2)NC(=O)CC(=O)N3)c1,–,inactive: -0.0817%
COc1ccc(CNC(=O)C(=O)NCC(c2cccnc2)N2CCN(c3ccccc3)CC2)cc1 (stereo unspecified),–,inactive: 2.81%
O=C(CSc1nc(=O)n(Cc2ccncc2)c2c1CCC2)Nc1cccc(F)c1,–,inactive: -0.75%
CCOc1ccc(CCNC(=O)c2ccc(CSCc3ccccc3C)o2)cc1OCC,inactive,–
CCc1ccc(NC(=O)CNC(=O)Cn2c(C)cc3ccccc3c2=O)cc1,–,inactive: -5.67%
Clc1ccc(-c2cn3cc(Cc4ccccc4)sc3n2)cc1,–,inactive: 5.36%
COc1cc(C2CC(=O)c3c([nH]c(C(=O)OC4CCCC4)c3C)C2)cc(OC)c1OC (stereo unspecified),–,inactive: 0.71%
CCOC(=O)c1c(NC(=O)COc2ccccc2)sc(C(C)=O)c1C,inactive,–
CCN(C(=O)Cn1nc(Cc2ccncc2)c2ccccc2c1=O)c1ccc(OC)cc1,–,inactive: 1.1%
